The values below come from the supplement of paper PMC10037445.

Assay [1] concerns RAW-Dual. As to the kind of experiment: IRF Lucia reporter activity, fold change vs agonist alone; cytotoxicity flag (confluency mask): not cytotoxic; higher = enhanced IRF activity. In short, it runs like this: (§1)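 Supernatant from RAW-Dual macrophages was read after 20 hours for IRF by QuantiLuc luminescence and for NF-κB by QuantiBlue absorbance at 620 nm. The cells (50,000 cells/well in DMEM, 384-well plates, 37 °C, 5% CO2) had received 50 nL of library stock by pin tool and, 1 h later, a PRR agonist. Reporter activity is expressed relative to agonist-alone wells as fold change, and wells were flagged cytotoxic if IncuCyte confluency was under 70% of agonist controls in both mask sets.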

Assay [2] concerns RAW-Dual. Kind of assay: IRF Lucia reporter activity, fold change vs agonist alone; higher = enhanced IRF activity. Particulars: agonist: MPLA (TLR4) […]. In short, it runs like this:
as §1

For assay [3], the system named is RAW-Dual. Kind of assay: IRF Lucia reporter activity, fold change vs agonist alone; cytotoxicity flag (confluency mask): cytotoxic (confluency <70% of control); higher = enhanced IRF activity. An outline of the steps: as §1
Where [4] appears, read: agonist: 3'3'-cGAMP (STING) 10 ug/mL.
Setting [5] is: library stock concentration (final ~1000-fold dilution): 10 mM, cytotoxicity flag (confluency mask): not cytotoxic.
[6] abbreviates: library stock concentration (final ~1000-fold dilution): 2 mM, cytotoxicity flag (confluency mask): not cytotoxic.
The mark [7] stands for this setting: library stock concentration (final ~1000-fold dilution): 10 mM, cytotoxicity flag (confluency mask): cytotoxic (confluency <70% of control).

Molecules are shown by their SMILES. Whole data set: some 2,900 compounds, median “IRF Lucia reporter activity, fold change vs agonist alone” near 0.9, cut for the highest 2% near 2.8. The list shows a part of the results.

Take `COC(=O)NC(C(=O)N1CCCC1C(=O)Nc1ccc(C2CCC(c3ccc(NC(=O)C4CCCN4C(=O)C(NC(=O)OC)C(C)C)cc3)N2c2ccc(C(C)(C)C)cc2)cc1)C(C)C` (centres undefined) (library stock concentration (final ~1000-fold dilution): 10 mM): the results for the “IRF Lucia reporter activity” value in the assay on RAW-Dual [1] (setting [4]) and in the assay on RAW-Dual [1] (agonist: LPS (TLR4) 0.1 ug/mL) were 0.995 and 1.21, respectively. Consider `COC(=O)NC(C(=O)N1CCCC1C(=O)Nc1ccc(C2CCC(c3ccc(NC(=O)C4CCCN4C(=O)C(NC(=O)OC)C(C)C)cc3)N2c2ccc(C(C)(C)C)cc2)cc1)C(C)C` (centres undefined), for which the “IRF Lucia reporter activity” value in the assay on RAW-Dual [2] (setting [5]) was found to be 0.973.

Regarding `CC1CCC(C(=O)N(c2cc(C#CC(C)(C)C)sc2C(=O)O)C2CCC(O)CC2)CC1` (centres undefined), in the assay on RAW-Dual [2] (setting [5]), the “IRF Lucia reporter activity” value was found to be 0.669.

In the case of `CC1CCC(C(=O)N(c2cc(C#CC(C)(C)C)sc2C(=O)O)C2CCC(O)CC2)CC1` (centres undefined) (library stock concentration (final ~1000-fold dilution): 10 mM), the “IRF Lucia reporter activity” value with RAW-Dual [1] (setting [4]) was determined as 1.05; in the assay with RAW-Dual [1] (agonist: LPS (TLR4) 0.1 ug/mL) it was 0.708. `CN(C)C1CCN(C(=O)c2ccc(NC(=O)Nc3ccc(-c4nc(N5CCOCC5)nc(N5CCOCC5)n4)cc3)cc2)CC1` (library stock concentration (final ~1000-fold dilution): 2 mM): the “IRF Lucia reporter activity” value came out at 0.426 with RAW-Dual [1] (setting [4]) and 1.05 with RAW-Dual [1] (agonist: LPS (TLR4) 0.1 ug/mL).

Turning to `CN(C)C1CCN(C(=O)c2ccc(NC(=O)Nc3ccc(-c4nc(N5CCOCC5)nc(N5CCOCC5)n4)cc3)cc2)CC1`, the “IRF Lucia reporter activity” value with RAW-Dual [2] (setting [6]) was 1.52. For `Cc1ccc(Nc2cc(NC3CCCCC3N)nnc2C(N)=O)nc1C` (centres undefined), the “IRF Lucia reporter activity” value in the assay with RAW-Dual [2] (setting [5]) amounted to 0.641. On to `Cc1ccc(Nc2cc(NC3CCCCC3N)nnc2C(N)=O)nc1C` (centres undefined) (library stock concentration (final ~1000-fold dilution): 10 mM), for which the entries for the “IRF Lucia reporter activity” value in the assay with RAW-Dual [1] (setting [4]) and with RAW-Dual [1] (agonist: LPS (TLR4) 0.1 ug/mL) were 0.0902 and 0.547, respectively. The matching figures for `CCOC(=O)c1ccc(N)cc1.Cl` (library stock concentration (final ~1000-fold dilution): 10 mM): 0.942 and 1.15. As to `CCOC(=O)c1ccc(N)cc1.Cl`, in the assay on RAW-Dual [2] (setting [5]), the “IRF Lucia reporter activity” value was 1.01.

In the case of `CC(C)[N+]1(C)C2CCC1CC(OC(=O)C(CO)c1ccccc1)C2` (centres undefined) (library stock concentration (final ~1000-fold dilution): 10 mM), the “IRF Lucia reporter activity” value came out at 1.06 in the assay on RAW-Dual [1] (setting [4]) and 0.99 with RAW-Dual [1] (agonist: LPS (TLR4) 0.1 ug/mL). In the case of `CC(C)[N+]1(C)C2CCC1CC(OC(=O)C(CO)c1ccccc1)C2` (centres undefined), the “IRF Lucia reporter activity” value in the assay with RAW-Dual [2] (setting [5]) amounted to 0.98.

Turning to `Cc1nc2n(c(=O)c1CCN1CCC(c3noc4cc(F)ccc34)CC1)CCCC2`, the “IRF Lucia reporter activity” value with RAW-Dual [2] (setting [6]) was 1.21. `Cc1nc2n(c(=O)c1CCN1CCC(c3noc4cc(F)ccc34)CC1)CCCC2` (library stock concentration (final ~1000-fold dilution): 2 mM): the entries for the “IRF Lucia reporter activity” value with RAW-Dual [1] (setting [4]) and in the assay on RAW-Dual [1] (agonist: LPS (TLR4) 0.1 ug/mL) were 1.02 and 0.978, respectively.

As to `COc1cc2c(cc1O)CCC1C2CCC2(C)C(O)CCC12` (centres undefined), the “IRF Lucia reporter activity” value with RAW-Dual [2] (setting [7]) came to 1.31. With `COc1cc2c(cc1O)CCC1C2CCC2(C)C(O)CCC12` (centres undefined) (library stock concentration (final ~1000-fold dilution): 10 mM), the results for the “IRF Lucia reporter activity” value in the assay on RAW-Dual [3] (setting [4]) and in the assay with RAW-Dual [3] (agonist: LPS (TLR4) 0.1 ug/mL) were 0.205 and 1.03, respectively. For `COc1ccc(Cn2c3ncnc4c(ncn4Cc4ccc(OC)cc4)c-3nc2=O)cc1` (library stock concentration (final ~1000-fold dilution): 10 mM), the “IRF Lucia reporter activity” value in the assay with RAW-Dual [1] (setting [4]) was determined as 0.58; in the assay on RAW-Dual [1] (agonist: LPS (TLR4) 0.1 ug/mL) it was 1.83.

As to `CCCC(NC(=O)/C(C#N)=C/c1cccc(Br)n1)c1ccccc1` (centres undefined) (library stock concentration (final ~1000-fold dilution): 10 mM), the results for the “IRF Lucia reporter activity” value in the assay with RAW-Dual [1] (setting [4]) and in the assay with RAW-Dual [1] (agonist: LPS (TLR4) 0.1 ug/mL) were 0.988 and 0.0105, respectively. Take `CCCC(NC(=O)/C(C#N)=C/c1cccc(Br)n1)c1ccccc1` (centres undefined): in the assay with RAW-Dual [2] (setting [5]), the “IRF Lucia reporter activity” value stood at 1.07.

As to `CCN1CC(CCN2CCOCC2)C(c2ccccc2)(c2ccccc2)C1=O` (centres undefined), the “IRF Lucia reporter activity” value with RAW-Dual [2] (setting [5]) stood at 1.09. For `CCN1CC(CCN2CCOCC2)C(c2ccccc2)(c2ccccc2)C1=O` (centres undefined) (library stock concentration (final ~1000-fold dilution): 10 mM), the “IRF Lucia reporter activity” value in the assay with RAW-Dual [1] (setting [4]) stood at 1; with RAW-Dual [1] (agonist: LPS (TLR4) 0.1 ug/mL), 1.36. As to `CCCC1CC(C(=O)NC(C(C)Cl)C2OC(SC)C(O)C(O)C2O)N(C)C1.Cl` (centres undefined), the “IRF Lucia reporter activity” value with RAW-Dual [2] (setting [5]) came out at 1.06.

With `CCCC1CC(C(=O)NC(C(C)Cl)C2OC(SC)C(O)C(O)C2O)N(C)C1.Cl` (centres undefined) (library stock concentration (final ~1000-fold dilution): 10 mM), the entries for the “IRF Lucia reporter activity” value in the assay with RAW-Dual [1] (setting [4]) and in the assay on RAW-Dual [1] (agonist: LPS (TLR4) 0.1 ug/mL) were 0.994 and 1.13, respectively. On to `COc1cc(NS(C)(=O)=O)ccc1Nc1c2ccccc2nc2ccccc12.Cl` (library stock concentration (final ~1000-fold dilution): 10 mM), for which the entries for the “IRF Lucia reporter activity” value in the assay with RAW-Dual [3] (setting [4]) and in the assay with RAW-Dual [3] (agonist: LPS (TLR4) 0.1 ug/mL) were 0.225 and 1.76, respectively.

As for `COc1cc(NS(C)(=O)=O)ccc1Nc1c2ccccc2nc2ccccc12.Cl`, the “IRF Lucia reporter activity” value in the assay on RAW-Dual [2] (setting [7]) turned out to be 1.76. Take `Cc1cnc(CNC(=O)c2c(=O)c3ccc(N4CCCN(C)CC4)nc3n3c2sc2ccccc23)cn1` (library stock concentration (final ~1000-fold dilution): 2 mM): the “IRF Lucia reporter activity” value in the assay on RAW-Dual [1] (setting [4]) came out at 1.1; in the assay with RAW-Dual [1] (agonist: LPS (TLR4) 0.1 ug/mL), 1.76. For the compound `Cc1cnc(CNC(=O)c2c(=O)c3ccc(N4CCCN(C)CC4)nc3n3c2sc2ccccc23)cn1`, the “IRF Lucia reporter activity” value in the assay on RAW-Dual [2] (setting [6]) was 1.61. For the compound `O=C1/C(=C/c2ccncc2)CCC/C1=C\c1ccncc1`, the “IRF Lucia reporter activity” value with RAW-Dual [2] (setting [7]) is 0.321. `O=C1/C(=C/c2ccncc2)CCC/C1=C\c1ccncc1` (library stock concentration (final ~1000-fold dilution): 10 mM): the figures for the “IRF Lucia reporter activity” value in the assay on RAW-Dual [3] (setting [4]) and with RAW-Dual [3] (agonist: LPS (TLR4) 0.1 ug/mL) were 0.114 and 0.0895, respectively.
